This is one part of the list.
T1: UNK ZnF1-6 (called full-length) (human, UniProt Q9C0B0 30-357)
T1 sequence: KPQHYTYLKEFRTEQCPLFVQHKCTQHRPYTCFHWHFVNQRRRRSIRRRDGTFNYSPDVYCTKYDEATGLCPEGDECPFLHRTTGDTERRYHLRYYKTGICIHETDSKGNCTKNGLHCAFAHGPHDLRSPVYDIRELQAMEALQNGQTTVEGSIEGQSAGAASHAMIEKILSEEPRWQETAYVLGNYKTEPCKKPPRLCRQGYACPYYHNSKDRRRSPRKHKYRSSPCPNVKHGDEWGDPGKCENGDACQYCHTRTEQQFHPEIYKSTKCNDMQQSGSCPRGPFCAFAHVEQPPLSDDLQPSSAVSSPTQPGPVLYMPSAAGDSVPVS

B1: chr5:83942588:83942842:-|3pUTR|ENSG00000164176|msi1|total|mutant (ssRNA)
RNA: GGGAGUUCUACAGUCCGACGAUCUUUUCUAAUUGAAUUUCCUAUCCGUUGACUAAAAGAAGUGUCAUGUUUACUCAUAUAUGCCGAACAUGACUGCCUAUCAGCCGAUUGAUCUGUAUUUAAUAUUCGUUAAUUAAAUCUGCACAACAGAGGAUUGAGCAUCA
B2: chr5:103210461:103210562:+|3pUTR|ENSG00000145725|unk|total|mutant (ssRNA)
RNA: GGGAGUUCUACAGUCCGACGAUCGAAUAAGGAGCUGGGAGAAAGGAGACCUGGGUAUUAAUCUCAGCUCUACCACUACAUGGCCGAGCUAUGCCGUGGCCGACUAUCUGGGAGACUCCCGAAUCUUUACCAUUCCCUCUACUACAACAGAGGAUUGAGCAUCA
B3: ENSG00000039319:stop:overlap|stop_codon|ENSG00000039319|stop_codon|NA|stop_codon (ssRNA)
RNA: GGGAGUUCUACAGUCCGACGAUCCCAACUCUAGUUUACCAUUAGAAAUAGAAUUAGUGUUUUUCAUUAUAGAACAUCUUUUUUAGUGAAAGAAUGUGCCAUAUUACAUAUUGCAACCUAAUUUGUUAAAACUAACUCCAGCACCAACAGAGGAUUGAGCAUCA
B4: chr7:66987971:66988072:-|3pUTR|ENSG00000126524|unk|total|mutant (ssRNA)
RNA: GGGAGUUCUACAGUCCGACGAUCAAGUUACUUGAGGCAGCUCUUGUGGGUGAAAAGUUAUUUGUACAGCCGAGUAAGAUUAUCCGGGGUAUGUCUAUACAACAAAAGGGGGGGUCUUUCCUAAAAAAGAAAACAUAUGAUGCUCAACAGAGGAUUGAGCAUCA
B5: chr7:130166276:130166377:-|3pUTR|ENSG00000146842|msi1|total|mutant (ssRNA)
RNA: GGGAGUUCUACAGUCCGACGAUCUCUCUGAGCCACUGACUCUUCUGAAAUAAAAUACACAUGGGUGUAUGUUACAGACUCUUCCGAUUUAACAGAAAAUGCCGCUGUUAUGAAAUGUAAUUGUAAAAAUAUGUCCCGUAUCUUCAACAGAGGAUUGAGCAUCA
B6: chr15:97973610:97973711:+|3pUTR|ENSG00000140450|unk|total|mutant (ssRNA)
RNA: GGGAGUUCUACAGUCCGACGAUCGGUGCACAAAAUCCUUCUGUGGGCAAAACUUUGUUUUUGUUUUGCACAGUAAGAAACAACCGGCAAGCGUUAUGUUUUUGGUAAGUUAACUAUGAAAGCUUUCUUAUUUUUAUUAUUAAACAACAGAGGAUUGAGCAUCA
B7: ENSG00000107863:be:win_151|CDS|ENSG00000107863|bound_else_gene|NA|bound_elsewhere_windowed (ssRNA)
RNA: GGGAGUUCUACAGUCCGACGAUCGUUACGUUGAAAAGAACAUCUCAAGGCUUUGGUUUUACAUUAAGACAUUUUAUUGUUUAUCCCCCAGAGUCUGCAAUUCAAUUUUCAUAUAAGGAUGAAGAAAAUGGAAACAGAGGAGGACAACAGAGGAUUGAGCAUCA
B8: chr11:88113250:88114123:-|three_prime_utr|ENSG00000123892|control|control|control (ssRNA)
RNA: GGGAGUUCUACAGUCCGACGAUCUCGUGAAGCCCCAUCUCACAUCAACCAAGGUUGCCAGCUGCUCUGGCUGUGCCAAAUCCUAGUAGGCACCUUUGCUGGUGUCUGGUAGGAAUGACCUCAUUGUUCCACAAAUUGUGCCUCCAACAGAGGAUUGAGCAUCA
B9: chrX:71101288:71101389:+|CDS|ENSG00000184481|unk|total|mutant (ssRNA)
RNA: GGGAGUUCUACAGUCCGACGAUCGGAGGCCCUGCUCACCUCUGAUACGCCACCACCCCCUGCUGACGUCCUCAUGACCCAGGCCGAUCCCAUUCUGUCCCAGGCUCCGACUCUUCUGUUGCUGGGGGGGCUUCCUUCCUCCAGCAACAGAGGAUUGAGCAUCA
B10: chr3:45082276:45085637:-|three_prime_utr|ENSG00000163814|control|control|control (ssRNA)
RNA: GGGAGUUCUACAGUCCGACGAUCAUUGAAAAUGAUGAAUUCCAAUCUGGAUACAGUCAUGACAGCUCAUGUGCUCCUCAACUUAGGCUGUGCGGUUAGCCAGCCUGUAAUGAGAGGAGAGAGGCCUGAGUCACCUAGCAUAGGCAACAGAGGAUUGAGCAUCA
B11: chr13:95044265:95044438:-|CDS|ENSG00000125257|control|control|control (ssRNA)
RNA: GGGAGUUCUACAGUCCGACGAUCACCAUUGAAGAUCUUCCUGGUAAAAUGGAUACUGAAUUAGCAGAAUCAGGAUCCAAUUUUAGUGUUGGACAAAGACAACUGGUGUGCCUUGCCAGGGCAAUUCUCAGGAAAAAUCAGAUACAACAGAGGAUUGAGCAUCA
B12: chr10:94132299:94132400:+|CDS|ENSG00000138193|unk|total|mutant (ssRNA)
RNA: GGGAGUUCUACAGUCCGACGAUCUGAGUAUCGCGCCACCCUCCAAAGGACUUCAAUAUCGCAGUACAUCACCGGUUCUCUCCCCGAAGCAACCACGUCUUUGGGAGCAAGAAGUGGCCUUCUCAGUACUUUUGGAGGAUCCACCAACAGAGGAUUGAGCAUCA
B13: chr4:75597091:75597192:-|CDS|ENSG00000138769|unk|total|mutant (ssRNA)
RNA: GGGAGUUCUACAGUCCGACGAUCUAUAAACUAUUUAAAAUAAAAGGCUCAAAAAUUGAUGGAGAAAAAGCUGAAAAAGGCAACCGAGCUUCAAAUGCCAGCUGUCUCCAUGACAGCCGGACAAGCCACAACAAAACCGUGCCUCAACAGAGGAUUGAGCAUCA
B14: ENSG00000107863:be:win_5301|CDS|ENSG00000107863|bound_else_gene|NA|bound_elsewhere_windowed (ssRNA)
RNA: GGGAGUUCUACAGUCCGACGAUCUCGGUUAAAACUGAGACCCAGAGCCCCUGCGGAUGACAUGUUUGGAGUAGGGAAUCACAAAGUGAAUGCCGAGACUGCUAAAAGGAAAAGCAUCCGGCGCAGACAUACACUAGGAGGGCACAACAGAGGAUUGAGCAUCA
B15: chr2:224470697:224470798:-|3pUTR|ENSG00000036257|msi1|total|mutant (ssRNA)
RNA: GGGAGUUCUACAGUCCGACGAUCUGUGACAAACUAAAGUUAAUACAUGAAGCAUUGCAAUAUGGAAUUUUGCACAUUUUUGUCCGCUUUACAUUAUUUGCUGAUACCAACUUUUGGCCGGAAGGAAAACAGGGAAGGUGAUUGCAACAGAGGAUUGAGCAUCA
B16: chr20:4701031:4701132:+|3pUTR|ENSG00000171867|msi1|total|mutant (ssRNA)
RNA: GGGAGUUCUACAGUCCGACGAUCCACCGUUUCUGUAAUUGGCUUUUGAAUCAAAGAACCGGGAGACAAUCUAAAAAAUAUCUCCGGUUGGAGAUGACAGAAAUAUGAUUGAUUUGAAGUGGAAAAAGAAAUUCUGUUAAUGUUCAACAGAGGAUUGAGCAUCA
B17: ENSG00000136451:be:win_2201|3pUTR|ENSG00000136451|bound_else_gene|NA|bound_elsewhere_windowed (ssRNA)
RNA: GGGAGUUCUACAGUCCGACGAUCAUUGUGACCUGAUAUUUGGAGAUGUAAAUAUUGCUCAGCAUAUUAAUCCCGAUGGAAUAUAGCAUUGUAGUUGACUUUUUAAAAAAAAAAAAAAUUUAAAAAAAAUCUACAAAUUGUGUUCAACAGAGGAUUGAGCAUCA
B18: chr2:219567275:219567376:-|CDS|ENSG00000124006|msi1|total|mutant (ssRNA)
RNA: GGGAGUUCUACAGUCCGACGAUCUGUGUGCCCUCCGAGGGUGACUACCGCUUCCGCAUCUGCACAGUCAGCGGACAUGGCCGCCGUCCCCACGUGGUGUUCCACGGUUCUGCUCACCUUGGUGAGUUGGUCCUGCCAGACCCACAACAGAGGAUUGAGCAUCA
B19: chr1:151048051:151048152:+|CDS|ENSG00000143443|unk|total|mutant (ssRNA)
RNA: GGGAGUUCUACAGUCCGACGAUCGACCGCCUGGCUGGACCAGCGGCUGCCGAGCUCUUGGCCGCCACGGUGUCCACCGGCUUCCGCCGGUCGUCCGCCAUUAACGAGGAGGAUGGGUCUUCAGAAGAGGGGGUUGUGAUUAAUCAACAGAGGAUUGAGCAUCA
B20: chr7:100033925:100034026:+|CDS|ENSG00000106261|msi1|total|mutant (ssRNA)
RNA: GGGAGUUCUACAGUCCGACGAUCCAGAGCUCGGACCUCACCAAGCAUCAGAGAAUUCACACGGGGGAGAAACCCUAUGAAUGCCGUGAAUGUGGAAAAGCUUUCAACCGAAACUCAUACCUGAUUUUGCAUCGGAGAAUUCACCAACAGAGGAUUGAGCAUCA
B21: chr6:108211900:108211976:-|3pUTR|ENSG00000112335|msi1_unk|total|mutant (ssRNA)
RNA: GGGAGUUCUACAGUCCGACGAUCGUUGACAAGAAGUUAAUUUGCUUCCGUAAAAAUCCCUCAUUCCAGCCUUUCUAUAUAAACCGCUCUUUCUUGCUGUUUUAAUGUGGUGCACACUACCGCCUCACAAACCUGUUAUUCCAGCAACAGAGGAUUGAGCAUCA
B22: chr1:53952023:53952124:+|CDS|ENSG00000116212|msi1|FALSE|unique (ssRNA)
RNA: GGGAGUUCUACAGUCCGACGAUCUACAUGCGAGAAAAUGGGCAGCUGCACAUGGUCAAUCUGGCUCUGGAUGGUGUCAGGAGUAGCCUGCAGAAGCCAAGGCCUUUCAGACUGUUCCCCAAAGGCUUUUCUGUGGAGCUUUGCCAACAGAGGAUUGAGCAUCA

Biological target: T1, UNK ZnF1-6 (called full-length)
Experiment: nsRBNS (natural sequence RNA bind-n-seq); RBNS binding buffer (assumed for nsRBNS): 25 mM Tris pH 7.5, 150 mM KCl, 3 mM MgCl2, 0.01% Triton X-100, 500 ug/ml BSA, 20 U/ml SUPERase-In, 4 C; UNK is unkempt and MSI1 is Musashi-1; names of the RNAs are library labels; protein concentration not given here; high values mean tight binding

Row | Binder | binding signal [enrichment R]
1 | B1 | 0.36
2 | B2 | 0.654
3 | B3 | 1.17
4 | B4 | 0.57
5 | B5 | 0.353
6 | B6 | 0.965
7 | B7 | 0.628
8 | B8 | 0.481
9 | B9 | 0.679
10 | B10 | 0.532
11 | B11 | 0.55
12 | B12 | 0.531
13 | B13 | 0.872
14 | B14 | 0.664
15 | B15 | 0.518
16 | B16 | 0.371
17 | B17 | 0.637
18 | B18 | 0.577
19 | B19 | 0.747
20 | B20 | 0.595
21 | B21 | 0.635
22 | B22 | 0.626
